Measured values: the supplement of paper PMC11383711
This is one part of the list. Binding of human antibodies (heavy:light variable regions, tested as scFv in one mRNA-display pool) to influenza hemagglutinin, with or without the stem antibody CR9114 bound first. Score = (mean enrichment − median) / interquartile range of that screen; higher = more enriched, 0 = typical non-binder. Active = above the paper's cut-off per screen: stems 28; unblocked H1 Solomon Islands 5, H1 Michigan 3, H3 5, H5 19, H7 2.85, both B 5; blocked 9, 7, H5 10, H7 10, B Phuket 10, B Lee 11.5. Scores are scaled within each screen and are no affinities; replicates correlate at about 0.6 to 0.9, and antibodies rare in the pool are noisier.

Legend:
Assay in all cases: mRNA display binding score; higher = more enriched on the antigen
[1] = biological target: Influenza A H1N1 A/Michigan/45/2015 hemagglutinin ectodomain
Experimental: (§1)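 A pool of natively paired antibodies, displayed as scFv on mRNA, was selected once on antigen-coated beads and sequenced before and after; two replicates.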

[2] = biological target: Influenza A H1N1 A/Solomon Islands/3/2006 hemagglutinin ectodomain
Experimental: as §1

[3] = biological target: Influenza A H3N2 A/Singapore/INFIMH-16-0019/2016 hemagglutinin ectodomain; conditions: antigen blocked with: nothing
Experimental: as §1

[4] = biological target: Influenza A H5N1 A/Qinghai/1A/2005 hemagglutinin ectodomain
Experimental: as §1

[5] = biological target: Influenza A H7N9 A/Shanghai/2/2013 hemagglutinin ectodomain
Experimental: as §1

[6] = biological target: Influenza B/Lee/1940 hemagglutinin ectodomain
Experimental: as §1

[7] = biological target: Influenza B/Phuket/3073/2013 hemagglutinin ectodomain
Experimental: as §1

[8] = antigen blocked with: 2 µM CR9114 IgG

Measured: mRNA display binding score

B1: H1N1-300-16-IgG-2E02- (protein)
chain 1: QVQLVQSGAEVKKPGSSVKISCEASGNTFTKYAISWVRQAPGQGLEWMGGMNPNFGTTNYAQKFQGRLTITADERTTTAYMDLSSLRPDDTAVYYCARAKLLGEVSLGPPEFWGQGTLVTVSS
chain 2: DIQMTQSPSSLSASIGDRVTITCQASQDIKKYLNWYQQKPGKAPKLLIYDASSLQTGVPSRFSGSGSGTEFTFTISSLQPEDIATYYCQQYHNLIPMDTFGQGTKVEIK
inactive: [1]; [8] 0.746 | [1]; antigen blocked with: nothing -0.514 | [2]; [8] 0.478 | [2]; antigen blocked with: nothing 0.0102 | [3] -0.329 | [4]; [8] -0.381 | [4]; antigen blocked with: nothing -0.367 | [5]; [8] -0.0717 | [5]; antigen blocked with: nothing -0.726 | [6]; [8] 1.11 | [6]; antigen blocked with: nothing 0.226 | [7]; [8] 0.268 | [7]; antigen blocked with: nothing 0.0943

B2: 051-09-4C02 (protein)
chain 1: QVQLVESGGGLVTPGGSLRLSCVASGFSFGDFYMGWIRQAPGKGLQWLSHISPSGGTIYYSDSVKGRFSISRDNAKNSVHLEMNSLRADDTAVYYCARAGVAVLTFDNRGWRFFDPWGQGTLVTVSS
chain 2: EIVLTQSPATLSLSPGERATLSCRASQSINDYLAWYQQKPGQAPRLVIHDASNRATGIPARFSGSGSETDFTLTISSLEPEDFAVYYCQQRSNWPPGVTFGQGTRLEIK
inactive: [1]; [8] 0.028 | [1]; antigen blocked with: nothing -0.729 | [2]; [8] -0.872 | [2]; antigen blocked with: nothing -0.473 | [3] 0.466 | [4]; [8] -0.504 | [4]; antigen blocked with: nothing -0.488 | [5]; [8] 0.474 | [5]; antigen blocked with: nothing -0.677 | [6]; [8] 0.0826 | [6]; antigen blocked with: nothing -0.367 | [7]; [8] -0.543 | [7]; antigen blocked with: nothing -0.366

B3: C1-C02 (protein)
chain 1: VQLVESGGGLVKPGGSLRISCAASGFSFSNAWMNWVRQAPGRGLEWVGRIKSKTDGGITDYGAPVKGRFSISRDDSKKTLYLQMNSLKTEDTAVYYCATGGGSASGMYYYNGLDVWGQGTTVTVSS
chain 2: DIVMTQTPLSLSVTPGQPASISCKSSQTLLHGDEKTYLYWYLQKPGQSPQILIYEVSNRFPDVPDRFSGSGSGTDFTLKISRVEAEDVGVYYCMQSIQLPYTFGQGTKVEIK
inactive: [1]; [8] 0.76 | [1]; antigen blocked with: nothing -0.915 | [2]; [8] -0.808 | [2]; antigen blocked with: nothing -0.397 | [3] -0.51 | [4]; [8] 0.777 | [4]; antigen blocked with: nothing -0.385 | [5]; [8] 0.502 | [5]; antigen blocked with: nothing -0.31 | [6]; [8] -0.323 | [6]; antigen blocked with: nothing -0.25 | [7]; [8] -0.351 | [7]; antigen blocked with: nothing -0.312

B4: antibody 3D03 (protein)
chain 1: EVQLVQSEAEVKKPGESLKISCKGSGYSFANYWIAWVRQMPGQDLEWMGVIYPGDSDTKYSPSFQGQVTISADKSISTAYLQWNSLKASDTAMYYCARAPPHEGRYYYYYYYMDVWGKGTTVTVSS
chain 2: AIRMTQSPSSLSASVGDRVTITCRASQDINSFLAWYQQKPGQAPKVLLYGASRLQSGVPSRFSGSGSGADYTLTISSLQPEDFATYYCQQYYHIPRFGQGTKVEIK
inactive: [1]; [8] 0.0677 | [1]; antigen blocked with: nothing -0.352 | [2]; [8] 0.251 | [2]; antigen blocked with: nothing 0.287 | [3] -0.235 | [4]; [8] -0.739 | [4]; antigen blocked with: nothing -0.242 | [5]; [8] 0.15 | [5]; antigen blocked with: nothing -0.484 | [6]; [8] 0.449 | [6]; antigen blocked with: nothing 0.469 | [7]; [8] -0.107 | [7]; antigen blocked with: nothing 0.3

B5: W85-2B03 (protein)
chain 1: QVQLVESGGGVVHPGRSLRLSCAASGFDFSDYAMHWVRQAPGKGLEWVALISSDGGNKYSADSMEGRFTISRDNYKNTVYLQMNRLRAEDTAVYYCATDFCSSSSCYLEYWGQGTLVTVSS
chain 2: QSALTQPASVSGSPGQSITISCTGTSTDVGGYNYVSWYQQHPGKAPKLMIYEVNNRPSGISDRFSASKSGNTASLTISGLQAEDEADYYCSSYTRRSTWVFGGGTKVAVL
inactive: [1]; [8] 0.275 | [1]; antigen blocked with: nothing -0.36 | [2]; [8] -0.893 | [2]; antigen blocked with: nothing -0.151 | [3] -0.518 | [4]; [8] -0.07 | [4]; antigen blocked with: nothing -0.633 | [5]; [8] -0.54 | [5]; antigen blocked with: nothing -0.504 | [6]; [8] 0.475 | [6]; antigen blocked with: nothing -0.274 | [7]; [8] -0.532 | [7]; antigen blocked with: nothing -0.14

B6: AG3-D06 (protein)
chain 1: QLQLQESGPGLVKPSETLSLTCSVSGGSISETIYYWGWIRQPPGKGLEWIGTIYSDGNTYYNPSLKSRVNMFVDTSDNQFSLKMKSLSAADTAVYYCARLRDGYKYYYGMDVWGQGTTVTVSS
chain 2: DIQMTQSPSSLSASVGDRVTIPCRASQTISTYLNWYQQRPGKAPKLLIYSASILERGVPSRFSGSGSGTDFTLTISSLQPEDFATYYCQWGSAISVTFGQGTKLEIK
inactive: [1]; [8] 0.39 | [1]; antigen blocked with: nothing 0.327 | [2]; [8] -0.03 | [2]; antigen blocked with: nothing -0.14 | [3] -0.495 | [4]; [8] 3.39 | [4]; antigen blocked with: nothing 4.89 | [5]; [8] 0.319 | [5]; antigen blocked with: nothing 0.661 | [6]; [8] -0.377 | [6]; antigen blocked with: nothing -0.172
active: [7]; [8] 35.6 | [7]; antigen blocked with: nothing 23

B7: C05 (protein)
chain 1: QVQLQESGGGLVQPGESLRLSCVGSGSSFGESTLSYYAVSWVRQAPGKGLEWLSIINAGGGDIDYADSVEGRFTISRDNSKETLYLQMTNLRVEDTGVYYCAKHMSMQQVVSAGWERADLVGDAFDVWGQGTLVTVS
chain 2: DIQLTQSPSSLSASVGDRVTLTCQASQDIRKFLNWYQQKPGKGPKLLIYDASNLQRGVPSRFSGVDLGQISLSSSVACSLKDVGTYYCQQYDGLPFTFGGGTKLEIK
inactive: [1]; [8] 5.03 | [1]; antigen blocked with: nothing 1.74 | [2]; [8] -0.376 | [2]; antigen blocked with: nothing 1 | [3] 0 | [4]; [8] 0.559 | [4]; antigen blocked with: nothing 0.535 | [5]; [8] 3.64 | [5]; antigen blocked with: nothing 1.45 | [6]; [8] 2.66 | [6]; antigen blocked with: nothing 1.14 | [7]; [8] 0.785 | [7]; antigen blocked with: nothing 1.64

B8: AG10-3C01 (protein)
chain 1: VQLLESGGDLIQPGGSLRLSCAASGFAFGRYAMGWVRQAPGKGLEWVSSISGGFGVFGVTYYADSVKGRFTISRDNSKNTLYLQMNSLRAEDTAIYYCVKDFTPPGTWGWRPGYCDYWGQGTLVTVSS
chain 2: EIVLTQSPGTLSLSPGERATLSCRASQSVTSNSLAWYQQRPGQAPRLLIYGASSRATGIPDRFSGSGSGTDFTLTITRMDPEDFAVYHCHHYGSSTGTFGQGTKVEIK
inactive: [1]; [8] 0.637 | [1]; antigen blocked with: nothing -0.123 | [2]; [8] 0.361 | [2]; antigen blocked with: nothing 0.119 | [3] -0.368 | [4]; [8] 0.692 | [4]; antigen blocked with: nothing 0.537 | [5]; [8] 5.85 | [5]; antigen blocked with: nothing 0.426 | [6]; [8] 5.39 | [6]; antigen blocked with: nothing 3.15 | [7]; [8] 0.323 | [7]; antigen blocked with: nothing 0.427

B9: 01.e.01 (protein)
chain 1: QVRLVESGGGVVQPGRSLRLSCAASAFTFSSYALHWVRQAPGKGLEWVTVISSNGRNKYYADSVKGRFTISRDNSKNTLYLQMNSLRVEDTAVYYCARGSSGYTYGYIDPLSNYYGMDVWGQGTTVTVSS
chain 2: DIVMTPRSVSLSVTPGEPASISCRSSQSLLHSNGYNYLDWYVQKPGQSPQLLIYLSSNRASGVPDRFSGSGSGTDFTLEISRVEAEDVAVYYCMQARQTPPTFGQGTKVEIK
inactive: [1]; [8] -0.032 | [1]; antigen blocked with: nothing 0.843 | [2]; [8] 0.487 | [2]; antigen blocked with: nothing 0.553 | [3] 0.478 | [4]; [8] 0.0906 | [4]; antigen blocked with: nothing 0.112 | [5]; [8] 0.384 | [5]; antigen blocked with: nothing 1.33 | [6]; [8] -0.482 | [6]; antigen blocked with: nothing 0.0872 | [7]; [8] -0.11 | [7]; antigen blocked with: nothing 0.0287

B10: antibody 3G04 (protein)
chain 1: EVQLVESGGGLVKPGGSLRLSCAASGFILSDYYMSWIRQAPGKGLEWISYISNSGSSIYNADSVKGRLTISRDSAKNSVFLELNSLRAEDTAVYYCARFPRFGSGSPYQNDAFDIWGQGTMVTVSS
chain 2: DIQMTQSPSSLSASVGDRVSITCRAGRNINNYLNWYQQPPGKAPKLLIFSAVTLQSGVPSRFSGSGSGTEFSLTINSLQPEDSATYYCQQTYGNPTFGQGTKVEIK
inactive: [1]; [8] 1.21 | [1]; antigen blocked with: nothing 0.44 | [2]; [8] -0.215 | [2]; antigen blocked with: nothing 0.839 | [3] 0.624 | [4]; [8] 1.52 | [4]; antigen blocked with: nothing 9.22 | [5]; [8] 0.771 | [5]; antigen blocked with: nothing 0.119 | [6]; [8] 1.34
active: [6]; antigen blocked with: nothing 136 | [7]; [8] 12.7 | [7]; antigen blocked with: nothing 73.1

B11: W85-1E04 (protein)
chain 1: EVQLVESGGGVVQPGGSLRLSCAASGFTFGDYAMHWVRQPPGKGLEWVSLITGDGGSTKYADSVKGRFTISRDNSKNSLSLEMNSLRTEDSALYYCAKDIVSVVAAVDYWGQGARVTVSS
chain 2: QSALTQPASVSGSPGQSITISCTGTSSDVGCYNYVSWYQQHPGKAPKLMIYDVNNRPSGVSDRFSGSKSGNTASLTISGLQAEDEADFYCSSYTVSSTLVFGSGTKVTVL
inactive: [1]; [8] -0.0745 | [1]; antigen blocked with: nothing 1.1 | [2]; [8] -0.297 | [2]; antigen blocked with: nothing 1.04 | [3] -0.37 | [4]; [8] 0.00442 | [4]; antigen blocked with: nothing 0.525 | [5]; [8] -0.816 | [5]; antigen blocked with: nothing -0.244 | [6]; [8] 1.91 | [6]; antigen blocked with: nothing 0.109 | [7]; [8] -0.229 | [7]; antigen blocked with: nothing -0.00737

B12: C1-F02 (protein)
chain 1: VQLQESGPGLVKPSETLSLTCTVSGGSIYSTIHYWGWIRQPPGKGLEWIGSIYYDANTYYNPSLKSRVTMSIDTSKNQFSLRVYSVTAADTAVYYCAKINSGYEYYYGMDVWGQGTTVTVSS
chain 2: EIVMTQSPGTLSVSPGERATLSCRASQSVRGNVAWYQQKSGQAPRLLIYNTSTRATGIPARFSGSGSGTEFTLTISSLQSEDLAVYYCQQYNNWLYTFGQGTKVEIK
inactive: [1]; [8] 2.02 | [1]; antigen blocked with: nothing -0.313 | [2]; [8] -0.0949 | [4]; [8] 0.271 | [4]; antigen blocked with: nothing 0.0843 | [5]; [8] -0.177 | [5]; antigen blocked with: nothing 0.496 | [6]; [8] -0.537 | [6]; antigen blocked with: nothing 1.06 | [7]; [8] 0.0434 | [7]; antigen blocked with: nothing 2.53
active: [2]; antigen blocked with: nothing 6.69 | [3] 6.83
